# Data reported in the supplement of paper PMC8728848.
# This is one part of the list.
# B1: PFL (Pseudomonas fluorescens) (protein)
# chain: MSKYAVANQWGGSSAPWHPGGTWVLGARDNQNVVAIEIKSGDGGKSFTGTMTYAGEGPIGFKAQRTGQNQYNVENQWGGNDAPWHPGGKWVIGGRDNQNVIALSVTSSDGGKNLSGTNTYANEGPIGFRGQIE
# What was measured:
# Test in all cases: glycan array binding signal (z-score within array); higher = stronger binding
# Conditions in all cases: glycan notation: IUPAC condensed, linker removed
# [1] = target: Gal6S(b1-4)Glc
# Procedure, shortened: (§1)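 From the Consortium for Functional Glycomics database, 3228 arrays were curated, keeping only those whose protein sequence was available. Binding is given as a within-array Z-score averaged across arrays sharing a protein sequence and across linkers. Negative Z-scores can be read as non-binding.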
# [2] = target: Gal6S(b1-4)Glc6S
# Procedure, shortened: as §1
# [3] = target: Gal6S(b1-4)GlcNAc
# Procedure, shortened: as §1
# [4] = target: Gal6S(b1-4)GlcNAc6S
# Procedure, shortened: as §1
# [5] = target: GalNAc(a1-3)Gal
# Procedure, shortened: as §1
# [6] = target: GalNAc(a1-3)GalNAc
# Procedure, shortened: as §1
# [7] = target: GalNAc(a1-3)GalNAc(b1-3)Gal(a1-4)Gal(b1-4)Glc
# Procedure, shortened: as §1
# [8] = target: GalNAc(a1-3)GalNAc(b1-3)Gal(a1-4)Gal(b1-4)GlcNAc
# Procedure, shortened: as §1
# [9] = target: GalNAc(b1-3)Gal
# Procedure, shortened: as §1
# [10] = target: GalNAc(b1-3)Gal(a1-4)Gal(b1-4)GlcNAc
# Procedure, shortened: as §1
# [11] = target: GalNAc(b1-3)Gal(a1-4)Gal(b1-4)GlcNAc(b1-3)Gal(b1-4)Glc
# Procedure, shortened: as §1
# [12] = target: GalNAc(b1-3)Gal(a1-6)Gal(b1-4)Glc
# Procedure, shortened: as §1
# [13] = target: GalNAc(b1-3)GalNAc
# Procedure, shortened: as §1
# [14] = target: GalNAc(b1-3)GlcNAc
# Procedure, shortened: as §1
# [15] = target: GalNAc(b1-4)Gal(b1-4)Glc
# Procedure, shortened: as §1
# [16] = target: GalNAc(b1-4)GlcNAc
# Procedure, shortened: as §1
# [17] = target: GalNAc(b1-4)GlcNAc(b1-2)Man
# Procedure, shortened: as §1
# [18] = target: GalNAc(b1-4)GlcNAc(b1-2)Man(a1-3)[GalNAc(b1-4)GlcNAc(b1-2)Man(a1-6)]Man(b1-4)GlcNAc(b1-4)GlcNAc
# Procedure, shortened: as §1
# [19] = target: GalNAc(b1-4)GlcNAc(b1-3)GalNAc(b1-4)GlcNAc
# Procedure, shortened: as §1
# [20] = target: GalNAc(b1-4)GlcNAc6S
# Procedure, shortened: as §1
# [21] = target: GalNAc(b1-6)GalNAc
# Procedure, shortened: as §1
# [22] = target: GalNAc3S(b1-4)GlcNAc
# Procedure, shortened: as §1
# [23] = target: GalNAc3S(b1-4)GlcNAc3S
# Procedure, shortened: as §1
# [24] = target: GalNAc3S(b1-4)[Fuc(a1-3)]GlcNAc
# Procedure, shortened: as §1
# [25] = target: GalNAc4S6S(b1-4)GlcNAc
# Procedure, shortened: as §1
# [26] = target: GalNAc6S(b1-4)GlcNAc
# Procedure, shortened: as §1
# [27] = target: Glc(a1-4)Glc
# Procedure, shortened: as §1
# [28] = target: Glc(a1-4)Glc(a1-4)Glc(a1-4)Glc
# Procedure, shortened: as §1
# [29] = target: Glc(a1-6)Glc(a1-6)Glc
# Procedure, shortened: as §1
# [30] = target: Glc(a1-6)Glc(a1-6)Glc(a1-6)Glc
# Procedure, shortened: as §1
# [31] = target: Glc(b1-4)Glc
# Procedure, shortened: as §1
# [32] = target: Glc(b1-6)Glc
# Procedure, shortened: as §1
# [33] = target: GlcA(b1-3)Gal
# Procedure, shortened: as §1
# [34] = target: GlcA(b1-3)GlcNAc
# Procedure, shortened: as §1
# [35] = target: GlcA(b1-6)Gal
# Procedure, shortened: as §1
# [36] = target: GlcA3S(b1-3)Gal(b1-4)GlcNAc(b1-2)Man
# Procedure, shortened: as §1
# [37] = target: GlcA3S(b1-3)Gal(b1-4)GlcNAc(b1-3)Gal(b1-4)Glc
# Procedure, shortened: as §1
# [38] = target: GlcNAc(a1-3)Gal(b1-4)GlcNAc
# Procedure, shortened: as §1
# [39] = target: GlcNAc(a1-4)Gal(b1-3)GlcNAc
# Procedure, shortened: as §1
# [40] = target: GlcNAc(a1-4)Gal(b1-4)GalNAc
# Procedure, shortened: as §1
# [41] = target: GlcNAc(a1-4)Gal(b1-4)GlcNAc
# Procedure, shortened: as §1
# [42] = target: GlcNAc(a1-4)Gal(b1-4)GlcNAc(b1-3)Gal(b1-4)Glc
# Procedure, shortened: as §1
# [43] = target: GlcNAc(a1-4)Gal(b1-4)GlcNAc(b1-3)Gal(b1-4)GlcNAc
# Procedure, shortened: as §1
# [44] = target: GlcNAc(a1-4)Gal(b1-4)GlcNAc(b1-3)Gal(b1-4)GlcNAc(b1-3)Gal(b1-4)GlcNAc
# Procedure, shortened: as §1
# [45] = target: GlcNAc(a1-4)Gal(b1-4)GlcNAc(b1-3)Gal(b1-4)[Fuc(a1-3)]GlcNAc(b1-3)Gal(b1-4)[Fuc(a1-3)]GlcNAc
# Procedure, shortened: as §1
binder,measurement,setting,value
B1,glycan array binding signal (z-score),[1],-0.113
same,glycan array binding signal (z-score),[2],-0.107
same,glycan array binding signal (z-score),[3],-0.115
same,glycan array binding signal (z-score),[4],-0.117
same,glycan array binding signal (z-score),[5],-0.116
same,glycan array binding signal (z-score),[6],-0.116
same,glycan array binding signal (z-score),[7],-0.116
same,glycan array binding signal (z-score),[8],-0.108
same,glycan array binding signal (z-score),[9],-0.119
same,glycan array binding signal (z-score),[10],-0.115
same,glycan array binding signal (z-score),[11],-0.117
same,glycan array binding signal (z-score),[12],-0.11
same,glycan array binding signal (z-score),[13],-0.114
same,glycan array binding signal (z-score),[14],-0.116
same,glycan array binding signal (z-score),[15],-0.113
same,glycan array binding signal (z-score),[16],-0.11
same,glycan array binding signal (z-score),[17],-0.117
same,glycan array binding signal (z-score),[18],-0.103
same,glycan array binding signal (z-score),[19],-0.116
same,glycan array binding signal (z-score),[20],-0.117
same,glycan array binding signal (z-score),[21],-0.116
same,glycan array binding signal (z-score),[22],-0.115
same,glycan array binding signal (z-score),[23],-0.115
same,glycan array binding signal (z-score),[24],-0.116
same,glycan array binding signal (z-score),[25],-0.117
same,glycan array binding signal (z-score),[26],-0.115
same,glycan array binding signal (z-score),[27],-0.116
same,glycan array binding signal (z-score),[28],-0.111
same,glycan array binding signal (z-score),[29],-0.112
same,glycan array binding signal (z-score),[30],-0.108
same,glycan array binding signal (z-score),[31],-0.115
same,glycan array binding signal (z-score),[32],-0.11
same,glycan array binding signal (z-score),[33],-0.111
same,glycan array binding signal (z-score),[34],-0.115
same,glycan array binding signal (z-score),[35],-0.11
same,glycan array binding signal (z-score),[36],-0.116
same,glycan array binding signal (z-score),[37],-0.113
same,glycan array binding signal (z-score),[38],-0.112
same,glycan array binding signal (z-score),[39],-0.118
same,glycan array binding signal (z-score),[40],-0.112
same,glycan array binding signal (z-score),[41],-0.113
same,glycan array binding signal (z-score),[42],-0.117
same,glycan array binding signal (z-score),[43],-0.117
same,glycan array binding signal (z-score),[44],-0.11
same,glycan array binding signal (z-score),[45],-0.104
